# Test results: the RNAGym collection of RNA variant scans (doi:10.7554/elife.90254)
# The source gives no read counts; variants with many changes may rest on few reads.
# B1: OR4K15 (parent)
# chain: GUUAACGGUCAUAGGCCAUGGAAACUAGGAGCACCAUUUCGCUGCCAGUGAAGAAAUGAACAAAGAAAAUCUGGGCCAGGCAGGCAUCAAAAGAAAUAGUCUUGCGCUCAACCAGAAAGUCUGUAAUCAUUUUAAGGGUA
# Variants of: B1
# Test: self-cleavage, relative activity (ratio to wild type); higher = more cleavage; in vitro, sequencing; the parent is a self-cleaving ribozyme
row,Variant,self-cleavage
1,U9C A22G A51G,1.24
2,A90G U100A U120C U122C U127C,0.2
3,A13C U26C A54U A60U U102G U130C,0.19
4,A24G A33U A55G A82G U122C,0.24
5,A36U U39C A110U U139C,0.55
6,A5G A23G A69G,0.75
7,A24G A68G A114U U127A,0.07
8,U38C U49A A126U,0.71
9,A52G A78G A92U,0.3
10,C17A A52G G53A G136A,2.14
11,A30G U70C U122A U131C,0.54
12,U37C U122C U133C,1.62
13,U2A A62G A82G,0.7
14,U2A A52U A89G U122A,1.29
15,C42G A114G U131C,0.07
16,A54G A67G U122C,0.95
17,A36G U37C U49C U57C A125G,0.15
18,A24G A62G U103C U122C U130C,0.39
19,C10U U87C A118G,0.34
20,U12A C16U A22G A64G U87C,1.34
21,A23G U102C G106A U122C,0
22,U103C U108C A117G U131C,0
23,C34U A54G A92G A117G U130C,1.04
24,A52G A90G A110G,0.08

row,Variant,self-cleavage
1,A64G U97C A114G,0.51
2,U87C A92G A96G,1.88
3,A33G U72C U122A,0.12
4,A94G C105U A140G,0.33
5,A18G U49G A92G U103C A117G,0.5
6,A22G A63G A68G U108C,0.02
7,A4G A114G A118G A134G,0.79
8,A30U U49C A56G U103C,0.69
9,A18G A64U A126G,1.78
10,A55G U87C U120A,2.03
11,A118G C128U A129G,0.04
12,A23G A47G A86G U102C G123U,1.9
13,A11U A52G U108C,0.07
14,U9C A98U A114G,1.77
15,A22G A89G U100C,1.9
16,U9C A52G A91G A126G,0.92
17,U37C A110G A117G,0.02
18,G53U U57G A82G,0.47
19,U38A A59G A67G A82G A125G A135G,0.11
20,A33G A64G U108C A116G U120A,0
21,U3C A13U U130G,1.24
22,U9C A11G A18U A59G A110G A111G,0.19
23,U37C A63G A78U A129G,0.26
24,U43A A55G A96G,2.25

row,Variant,self-cleavage
1,U2C U39C A68G,0.53
2,A54G A82G U103C U133C,2.2
3,A11U C34A A62G,1.75
4,A51G U103C A114U,0.03
5,A51G A67G C105G,0.05
6,A22G A96G A110G,0.28
7,A47U A52G A59G A63G A129G U130A,0.32
8,U43C A51G U120C,0.77
9,A33G U43C U103C,0.51
10,C42U A64G U108C,0.02
11,A18U A23G U37C,1.34
12,A4G A60G U87C,1.42
13,A60G A86U G106A,0
14,U38C A68G A78U A82U U127C,0.07
15,A11G A60G C61G A64G A92G,1.33
16,A11G A24G A55G A64U A110U,2.26
17,A5G A60U A116G A126C,0.41
18,A63G A95U A117G A118G,2.04
19,U2C U70C A89G A98C C128U G137U,0.38
20,A33G A66G A82U A86U A116U,0.03
21,U3A A47G U100C,1.17
22,A33G A78U U122A,0.06
23,A11G A59G A118G A129G,0.33
24,U19C A60G U72A A91G,0.09

row,Variant,self-cleavage
1,U9C A33U A117G,2.93
2,U38C A60G A95U A111U,0.1
3,A13G A24G A59G A68G C88G U127C,0.84
4,U26C A96G A114U,0.06
5,U26A A51U U108A,0
6,A11G G29A A52G A67G A78G U87C,0.22
7,U39C U72A U102C U108C A114G A116C,0
8,A23G U37C U49C G73A,0.11
9,U39C A94G U131C,0.67
10,A13G U38C A94G,0.66
11,U9C A98G A118G,0.53
12,C10U A13U A64G A91G,0.66
13,A11U A30U U87C A116G A117G A125G U132C,0.07
14,A11U A33G U49A U57C G79A A129G,0.03
15,A24G C113A U130C,0
16,A59U A63G G93A A114G U122A G137U,0.03
17,U9C A23G A33G A63G U124G,0.21
18,A33G A64G G74A A140C,0.17
19,U97C C109A A135G,0.11
20,A51G A56U U87C,1.12
21,A22G A82G U131C,0.51
22,U39C A47U U87A,0.86
23,A11U U49G G106A A111G A118G,0
24,A67G U72A A86G U139C,0.27

row,Variant,self-cleavage
1,G8U U26C G58A A96G U102C U132C,1.12
2,A13G U49C U97A,1.64
3,A13G A52G A129G,1.54
4,A13U A56G U97C A98G U108C A110U A126G,0.01
5,G21A A62U A64U A111G,0.03
6,C16U A90G A92G U97C,0.65
7,G15U A22G A23G U70A A90G A98G,0.21
8,A4G A24C A56G A110G,0.12
9,A11G C40U A64G A90G U127C,0.97
10,U37C A51C A66G U87C,1.14
11,A54G A55G A95G U100C,2.61
12,U39C A111G U130C,0.01
13,G15A A60G A82U A129G,0.04
14,U49C A98G A117G,0.46
15,A24G A27G A52G U57A,0.58
16,A27G A47G A66G,0.97
17,A69G U70C A90G U108C A116U A118G U131C,0
18,A23G A59U A60G,1.26
19,U9C A23G A55G,0.38
20,A36G A52G U70C,1.06
21,A11C A52G U100C A125G,2.14
22,A36G U49G A55C,1.02
23,A55G A63G G74U A91G,0.21
24,C42U C107A A110G,0.02

row,Variant,self-cleavage
1,U9C A54U A78U,0.38
2,U9C A13G A22U A59U U72A A95G,0
3,U12C A36G A59G A90G U108C A129G,0.01
4,A56G A98G C105U A126U,0.03
5,A18G A30G U103A A126C,0.1
6,U120C U132C A135U,0.9
7,A33G U38C U49C A69G,0.51
8,A68U A82U A95C A110G,0.05
9,A36U A96G A98G U108C A126G,0
10,A59G U87C A117G U130C U139A,1.1
11,A62G A66G A110U A135U,1.32
12,U38C G41A C45U A60G U100C,2.74
13,A4G A55G A59G A98G A116G,0.06
14,A5G A54G A60U A92C,0.9
15,U26C A92G U102C U120C,0.78
16,U9C A69G U103C,1.2
17,A90U A92G U100C,2.14
18,A55G A126G U127C,0.56
19,U2C U72C A98C A116G,0.24
20,A91G A94G U120C,0.06
21,A64G U70A A86G A118G,0.23
22,U49C A66G A92G U103A,0.42
23,A5G U37C A66G A90G,1.74
24,U39C A94G A135G,1.38

row,Variant,self-cleavage
1,U2A A23G A24G A82G,0.45
2,U12C U70A A118C,0.31
3,G58U A59G A60G,1.25
4,A52G A67G A68G A92G A110G A118G U132C,0.05
5,U39C U132C U133C,0.57
6,U39C U57C A63G U72A,0.5
7,U9C U26A U131C,0.32
8,U12C A18G A30G A52G,0.61
9,A64G G73A U97C A135G,0.04
10,A18G U19C A82U,0.34
11,A5G A22G C42U,1.28
12,U49C A62G A96C,0.38
13,A24G A111G U132C,0.02
14,C10U U49C A60U A89U,1.17
15,U12G A30U A90C,1.08
16,U9C A22G C88U U132C,1.05
17,A22U A52G U57A,0.74
18,G83U A126U A129G,0.26
19,A51G A56G U120C U132C,0.24
20,A11G A62G A96G,1.13
21,A64G A92C A111G U130C U133A,0
22,A22G U57A A91G A140G,0.78
23,A5G A67U A78G,0.64
